# Source: the supplement of paper PMC3334620
# Over roughly 33,000 sequences, “E-score (-0.5 to 0.5)” has its median near -0.011; the highest 2% begin near 0.28. This is one part of the list.
# Target: T1, Gcr1 (UniProt P07261)
# T1 sequence: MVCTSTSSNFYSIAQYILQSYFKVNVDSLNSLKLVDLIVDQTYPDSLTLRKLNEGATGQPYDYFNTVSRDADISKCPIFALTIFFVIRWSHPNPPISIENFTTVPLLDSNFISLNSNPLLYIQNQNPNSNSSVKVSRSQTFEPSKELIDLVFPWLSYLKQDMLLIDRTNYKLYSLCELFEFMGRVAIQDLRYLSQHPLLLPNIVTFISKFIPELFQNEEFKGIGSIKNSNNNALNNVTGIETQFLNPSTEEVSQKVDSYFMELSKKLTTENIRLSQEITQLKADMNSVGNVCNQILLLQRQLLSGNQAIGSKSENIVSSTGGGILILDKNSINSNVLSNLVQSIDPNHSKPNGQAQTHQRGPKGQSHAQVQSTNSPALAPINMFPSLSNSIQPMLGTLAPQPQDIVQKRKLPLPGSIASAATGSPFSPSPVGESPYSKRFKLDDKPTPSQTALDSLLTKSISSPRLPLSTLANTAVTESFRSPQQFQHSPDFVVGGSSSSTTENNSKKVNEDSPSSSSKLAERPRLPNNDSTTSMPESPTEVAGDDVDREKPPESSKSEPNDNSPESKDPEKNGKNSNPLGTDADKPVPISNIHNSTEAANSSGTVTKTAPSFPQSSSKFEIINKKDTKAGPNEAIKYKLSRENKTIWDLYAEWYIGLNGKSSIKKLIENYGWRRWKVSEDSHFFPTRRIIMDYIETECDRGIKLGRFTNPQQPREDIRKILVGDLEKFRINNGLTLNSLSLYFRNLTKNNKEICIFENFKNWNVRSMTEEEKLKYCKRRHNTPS
# Experiment: PBM E-score (8-mer binding enrichment) (E-score (-0.5 to 0.5)); higher = stronger / more preferred TF binding; most listed sequences are background and not binding sites
# Conditions: protein concentration: 100 nM; construct: GST-full length
# How it was run: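 Using PURExpress in vitro transcription/translation, GST-tagged yeast transcription factors were made in full-length or DNA-binding-domain form. These were applied at about 100-200 nM to double-stranded universal all-10-mer Agilent arrays, and bound protein was detected with fluorescent anti-GST. Scans were normalised with masliner before the Universal PBM Analysis Suite assigned E-scores to ungapped eight-base words pooled with their reverse complements.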
row,Sequence,PBM E-score
1,CACTTCTC,0.0143
2,ATTGCGAC,0.00666
3,CCTTACTC,-0.105
4,GCGGTGGA,0.0209
5,AGGCGGAT,-0.0646
6,CATAGCAA,0.0701
7,GGTGAGCA,-0.0456
8,GCATGTAC,-0.129
9,CTCGTAAG,-0.00585
10,CGAAGTAG,-0.0634
11,AAGTCCTG,-0.124
12,TAAGGTGA,0.0486
13,ACGCAGGC,-0.112
14,TGTTAAAA,0.0554
15,CCTGAAGC,-0.0642
16,AAAAAGGA,0.23
17,CTTTACGA,0.0372
18,CGGTACCA,0.0217
19,ATATTAAA,0.231
20,GAGGCCTC,-0.0204
21,ACAACGAC,0.167
22,ATTAATAC,0.236
23,CTCAGGTA,0.0682
24,ACGGCTCC,0.0972
25,CAGTAAAC,0.00833

row,Sequence,PBM E-score
1,ACGTTAGC,-0.219
2,ATGTACTG,-0.0239
3,CCTAGGCA,-0.189
4,AAAACTAT,0.00895
5,CAAGACAA,-0.0716
6,CTAGATAC,0.19
7,AATCGGAG,-0.0733
8,ACCTGGAC,-0.133
9,AGTAAAGA,-0.222
10,AATTTATC,0.0765
11,CTACAAAA,0.161
12,GCAGCTGA,0.336
13,AATCTTTG,0.157
14,TTGTACAA,0.081
15,AGGTAAAA,-0.0831
16,GAACACCC,0.0381
17,GCGACAGA,-0.108
18,AGCCACCG,0.0874
19,CTAGGTCC,-0.115
20,GGGTGCCA,0.414
21,TGCTCCCA,-0.0935
22,GCTCTCAA,0.14
23,AGCCAAGC,-0.0873
24,ATAGCAGA,0.00534
25,AAGCCGCA,0.266

row,Sequence,PBM E-score
1,ATGGTTTG,-0.0011
2,GAAGTCGA,-0.0123
3,AACTGTTG,-0.0169
4,GATTCCCC,0.289
5,CAAAACAG,0.152
6,CTGGTACA,0.154
7,GGGGACTA,-0.245
8,GAAAGGCC,-0.189
9,GGGAACCA,0.314
10,CTTGCTCA,-0.0829
11,ACATACAT,0.0989
12,AATATGGG,0.0736
13,AGAGCATA,0.0496
14,CGCAGCAC,-0.0714
15,CGTGGAAA,0.0989
16,ACAGCAAA,0.0114
17,ACACCCGG,0.00389
18,AGTTGCAT,-0.112
19,ACATTTCA,0.0812
20,AATCCCGA,0.217
21,ATAATGCA,-0.0183
22,ATAGTTCA,0.0266
23,GCCGGAAC,0.247
24,CGTCTGCC,-0.0726
25,GCTCGGAC,-0.265

row,Sequence,PBM E-score
1,ATTCTTGC,0.0176
2,AACTACGC,-0.103
3,AAGACCAG,-0.0707
4,CTGGAATA,0.259
5,ACTGAGTA,-0.0348
6,GATATATC,0.0242
7,GTCCACAC,0.0205
8,CTTACACA,-0.0766
9,GTCACCCA,-0.092
10,AACAGGCA,0.0706
11,ACTCCATA,0.0891
12,ATAGCCGC,0.0383
13,CGTCGACC,-0.228
14,ACGGCGCG,-0.0701
15,CACCGCAG,-0.0982
16,GTAGCAAC,0.0656
17,CACGTTGG,-0.0407
18,CGTTTAGA,0.12
19,GAGCGCCA,-0.0321
20,CTATGTCC,-0.0336
21,CCTGGTTC,0.0962
22,AAGGTTCT,0.211
23,ACGATCTC,-0.132
24,AAGAAAAC,-0.0707
25,ATATCGAA,0.153

row,Sequence,PBM E-score
1,ATACGGAC,-0.0849
2,AGTCTCTG,-0.22
3,ATCAAGTC,-0.133
4,ACACACCG,-0.153
5,AGAAAATC,0.156
6,ACGATTTC,-0.0826
7,AGATCGAT,-0.137
8,CAGCGGGA,0.0491
9,CGATTTTA,0.102
10,CCGTGAAC,-0.00534
11,CGCGAATA,0.192
12,CAGACGTC,-0.105
13,CAGAAATC,-0.032
14,ACCCACAG,0.00387
15,GTATACTA,-0.0859
16,GCAGGTAC,-0.00141
17,ACCATGGG,-0.0124
18,CCCATGGG,0.0667
19,AGGAAAAA,-0.283
20,GCCGCAAA,-0.0534
21,TATTAGAA,0.163
22,ACCCTAAA,0.0664
23,CACCAAGG,0.0974
24,GAGAAAAA,-0.0121
25,TCCGGTAA,0.168

row,Sequence,PBM E-score
1,ATTCGATA,0.234
2,GGAAAAAA,-0.0262
3,CAAGACGC,0.238
4,AAAGCGAT,0.142
5,CGCTACAG,0.108
6,ATGCTACC,0.0625
7,AGAAGCAT,0.0749
8,CGTAATGC,0.0461
9,AATACCTA,0.0884
10,TCAAGAAA,0.132
11,CCTTCACA,-0.248
12,CACGGCGA,-0.0331
13,CCAAGGGA,-0.0899
14,CCGCGTAC,-0.0772
15,AACTTCTG,0.163
16,ACCGACGC,-0.0878
17,AATCGAGC,0.0387
18,CTGACGGA,-0.229
19,ACACCAAG,-0.023
20,AGGTGACC,0.153
21,AGCAGCAT,-0.00516
22,CGAGCTGA,-0.0297
23,GGTGTTCA,0.106
24,CCCACACC,0.108
25,GATGTATA,0.0854

row,Sequence,PBM E-score
1,ACTACTCC,0.0438
2,TCCTGGAA,0.162
3,AAGTTGCT,0.194
4,AGACTAGC,-0.139
5,CTAGCGTA,-0.215
6,ACTTTTGC,-0.15
7,GTACCTAC,-0.0043
8,ACCTGTTA,0.0289
9,CTCACCGA,-0.189
10,CGACAGCG,-0.122
11,TACGAATA,-0.0693
12,ACACCCAA,-0.0445
13,AGTATCGA,0.0136
14,GGACACTA,0.0929
15,AGGCATTG,0.0194
16,ACCCGCCG,-0.0692
17,GCTAAGGA,0.222
18,CGCACTGA,-0.0511
19,ACAGGACA,-0.101
20,GAAGCTGC,0.406
21,CCAACTTA,0.147
22,ATTTCAGG,0.254
